Values marked as one replicate rest on one cluster of the flow cell; about a third of the high ones do not repeat.
These sequences were tested on ATP (assay: switch fluorescence ratio, 500 uM ATP over buffer (Cy3 cluster intensity, sum of 5 cycles each) (fold (ratio)); higher = stronger signal-on switching upon ATP binding; sequences stand for … in TCGTCGGCAGCGTCAGATGTGTATAAGAGACAGTTTTTTTTTTTTTTTTTTTTTTTTT…TC). Conditions: aptamer strand: ATP DNA aptamer (quencher-CACCTGGGGGAGTATTGCGGAGGAAGG + anchor), 100 nM annealed; ATP concentration: 500 uM; one replicate.
In short: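 Per cluster, summed Cy3 intensity from the target cycles was divided by that from the buffer cycles to give the fluorescence ratio, then averaged per switch-domain sequence. Clusters outside 100-1000 RFU were excluded. The Cy3-labelled switching-strand clusters, on a modified Illumina MiSeq flow-cell, were annealed to 100 nM quencher-labelled ATP aptamer and imaged in selection buffer, then after 15 min with 500 uM ATP at 22 °C, for five cycles with NaOH stripping and re-annealing between them.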
Sequence AACGCGTCGA has a switch fluorescence ratio of 1.09.
In the case of AACGCGTTAG, the switch fluorescence ratio is reported as 0.985.
Sequence AACGGAAAAC has a switch fluorescence ratio of 1.11.
For AACGGAATTG, the switch fluorescence ratio was 1.07.
AACGGAGGGA gave a switch fluorescence ratio of 1.02.
Work on AACGGATAGT yielded a switch fluorescence ratio of 0.969.
AACGGCAGTA was tested, and the switch fluorescence ratio was 1.03.
Sequence AACGGCAGTT has a switch fluorescence ratio of 1.01.
Sequence AACGGCCGGC has a switch fluorescence ratio of 1.12.
In the case of AACGGCTGTA, the switch fluorescence ratio is reported as 1.01.
In the case of AACGGGCAAT, the switch fluorescence ratio is reported as 1.39.
AACGGGCGAT was tested, and the switch fluorescence ratio was 0.977.
With AACGGGGCGG the switch fluorescence ratio was 1.23.
Work on AACGGGTCTT yielded a switch fluorescence ratio of 1.03.
For AACGGTCACG, the switch fluorescence ratio was 1.04.
AACGGTTACT gave a switch fluorescence ratio of 1.25.
Work on AACGGTTCAA yielded a switch fluorescence ratio of 1.01.
AACGTAACGA showed a switch fluorescence ratio of 1.33.
AACGTCCACA was tested, and the switch fluorescence ratio was 1.29.
For AACGTGCACG, the switch fluorescence ratio was 1.01.
Work on AACGTGCCGG yielded a switch fluorescence ratio of 1.
For AACGTGGAAC, the switch fluorescence ratio was 1.04.
AACGTGTTAA was tested, and the switch fluorescence ratio was 0.994.
Sequence AACGTTACAG has a switch fluorescence ratio of 1.28.
Work on AACGTTTTGA yielded a switch fluorescence ratio of 1.02.
With AACTAAGAAT the switch fluorescence ratio was 0.998.
AACTACATTT showed a switch fluorescence ratio of 1.02.
AACTACGGG was tested, and the switch fluorescence ratio was 1.09.
AACTAGAATT showed a switch fluorescence ratio of 1.02.
Sequence AACTAGGCAA has a switch fluorescence ratio of 1.
With AACTAGTTTC the switch fluorescence ratio was 0.988.
With AACTATACCT the switch fluorescence ratio was 0.939.
In the case of AACTATCAAC, the switch fluorescence ratio is reported as 0.99.
AACTATGTAG showed a switch fluorescence ratio of 1.03.
AACTATTACG was tested, and the switch fluorescence ratio was 1.09.
AACTCCTAGG showed a switch fluorescence ratio of 1.26.
AACTCGGTTG gave a switch fluorescence ratio of 0.973.
In the case of AACTCTCCG, the switch fluorescence ratio is reported as 1.25.
AACTGAGATA showed a switch fluorescence ratio of 1.
In the case of AACTGATCTT, the switch fluorescence ratio is reported as 0.977.
With AACTGCGTAA the switch fluorescence ratio was 1.29.
AACTGCTGAT was tested, and the switch fluorescence ratio was 0.954.
For AACTGGGACC, the switch fluorescence ratio was 1.02.
AACTGGTAGC showed a switch fluorescence ratio of 1.02.
Work on AACTGTTGAG yielded a switch fluorescence ratio of 1.
AACTTAATTT gave a switch fluorescence ratio of 1.02.
AACTTCAATA was tested, and the switch fluorescence ratio was 1.06.
For AACTTCCCCT, the switch fluorescence ratio was 1.21.
AACTTCCGTA gave a switch fluorescence ratio of 1.25.
In the case of AAGAAAACGC, the switch fluorescence ratio is reported as 0.982.
With AAGAAACTGC the switch fluorescence ratio was 1.07.
For AAGAACACGG, the switch fluorescence ratio was 1.02.
Sequence AAGAACTTT has a switch fluorescence ratio of 0.968.
AAGAAGACG gave a switch fluorescence ratio of 0.985.
Work on AAGAAGACTC yielded a switch fluorescence ratio of 1.09.
AAGAAGCAA was tested, and the switch fluorescence ratio was 1.83.
In the case of AAGAAGGTTT, the switch fluorescence ratio is reported as 1.05.
AAGAATAGTA showed a switch fluorescence ratio of 0.957.
In the case of AAGACCGTTT, the switch fluorescence ratio is reported as 0.955.
In the case of AAGACCTGTG, the switch fluorescence ratio is reported as 0.969.
AAGACTCATT showed a switch fluorescence ratio of 1.
For AAGACTGCTA, the switch fluorescence ratio was 1.08.
With AAGAGAATAC the switch fluorescence ratio was 1.14.
Work on AAGAGAGCAC yielded a switch fluorescence ratio of 0.939.
For AAGAGCAAGA, the switch fluorescence ratio was 1.29.
AAGAGCGGAG gave a switch fluorescence ratio of 0.961.
In the case of AAGAGCGTTA, the switch fluorescence ratio is reported as 1.
AAGAGGCCTG was tested, and the switch fluorescence ratio was 0.952.
Work on AAGAGGCGAA yielded a switch fluorescence ratio of 0.981.
For AAGAGTCAAT, the switch fluorescence ratio was 1.06.
With AAGAGTCCTA the switch fluorescence ratio was 0.975.
AAGAGTTTG gave a switch fluorescence ratio of 1.
In the case of AAGATATAGG, the switch fluorescence ratio is reported as 1.02.
AAGATCACCG gave a switch fluorescence ratio of 1.04.
For AAGATCCACC, the switch fluorescence ratio was 1.06.
Work on AAGATCGCCC yielded a switch fluorescence ratio of 1.01.
Work on AAGATCGGCC yielded a switch fluorescence ratio of 0.986.
Sequence AAGATCTAGT has a switch fluorescence ratio of 0.978.
Sequence AAGATCTGCG has a switch fluorescence ratio of 1.01.
AAGATGCGGG gave a switch fluorescence ratio of 1.02.
AAGATGGAAT was tested, and the switch fluorescence ratio was 0.991.
AAGATGGCAA gave a switch fluorescence ratio of 0.996.
For AAGATGTCAC, the switch fluorescence ratio was 1.01.
Work on AAGATGTTC yielded a switch fluorescence ratio of 1.01.
For AAGCACCTAT, the switch fluorescence ratio was 1.17.
AAGCACTGAC gave a switch fluorescence ratio of 1.53.
AAGCAGAAC showed a switch fluorescence ratio of 2.31.
With AAGCAGAAGT the switch fluorescence ratio was 1.01.
Sequence AAGCAGCTTT has a switch fluorescence ratio of 1.04.
AAGCAGGAGG was tested, and the switch fluorescence ratio was 0.979.
Sequence AAGCATATGA has a switch fluorescence ratio of 1.02.
AAGCATCGTC gave a switch fluorescence ratio of 0.996.
For AAGCATGT, the switch fluorescence ratio was 1.09.
For AAGCCATCTA, the switch fluorescence ratio was 1.03.
In the case of AAGCCATGGC, the switch fluorescence ratio is reported as 0.926.
Sequence AAGCCGAGTT has a switch fluorescence ratio of 0.976.
AAGCCGGTAT was tested, and the switch fluorescence ratio was 0.976.
AAGCCTACGC was tested, and the switch fluorescence ratio was 1.16.
Sequence AAGCCTACGG has a switch fluorescence ratio of 1.02.
AAGCCTAGGG gave a switch fluorescence ratio of 1.03.
For AAGCCTGCTA, the switch fluorescence ratio was 1.07.
With AAGCCTGCTG the switch fluorescence ratio was 1.02.
Work on AAGCGCTGCT yielded a switch fluorescence ratio of 1.
For AAGCGGATCT, the switch fluorescence ratio was 0.997.
With AAGCGGATG the switch fluorescence ratio was 1.
In the case of AAGCGGCGGA, the switch fluorescence ratio is reported as 1.
With AAGCGGGCTA the switch fluorescence ratio was 0.966.
Work on AAGCGTACTG yielded a switch fluorescence ratio of 1.06.
With AAGCGTCCTT the switch fluorescence ratio was 1.02.
AAGCGTTAGA gave a switch fluorescence ratio of 1.04.
For AAGCGTTCTG, the switch fluorescence ratio was 0.997.
Work on AAGCGTTGGA yielded a switch fluorescence ratio of 0.982.
With AAGCTAGAGA the switch fluorescence ratio was 1.01.
With AAGCTAGTAC the switch fluorescence ratio was 2.94.
Sequence AAGCTCCCTG has a switch fluorescence ratio of 1.04.
With AAGCTCTCAC the switch fluorescence ratio was 1.05.
With AAGCTGCTAG the switch fluorescence ratio was 0.98.
Sequence AAGCTTAGTG has a switch fluorescence ratio of 0.987.
In the case of AAGGAACCTT, the switch fluorescence ratio is reported as 1.85.
AAGGAAGAC was tested, and the switch fluorescence ratio was 1.29.
Work on AAGGAGGAGA yielded a switch fluorescence ratio of 0.994.
With AAGGAGTCGA the switch fluorescence ratio was 1.02.
Work on AAGGAGTGG yielded a switch fluorescence ratio of 0.956.
In the case of AAGGATACAA, the switch fluorescence ratio is reported as 0.979.
AAGGATTAGG gave a switch fluorescence ratio of 0.947.
With AAGGATTGGC the switch fluorescence ratio was 1.09.
AAGGCATAGG was tested, and the switch fluorescence ratio was 0.975.
AAGGCATGGC showed a switch fluorescence ratio of 0.922.
For AAGGCCCAAA, the switch fluorescence ratio was 0.979.
AAGGCCGCAC showed a switch fluorescence ratio of 1.34.
For AAGGCCTCGA, the switch fluorescence ratio was 1.01.
AAGGCGCTCG gave a switch fluorescence ratio of 1.02.
AAGGCGTAGC gave a switch fluorescence ratio of 1.02.
AAGGCGTT was tested, and the switch fluorescence ratio was 1.01.
With AAGGCTCTTT the switch fluorescence ratio was 1.01.
Sequence AAGGCTGACA has a switch fluorescence ratio of 0.969.
AAGGCTGGGC gave a switch fluorescence ratio of 0.996.
Sequence AAGGGACAAC has a switch fluorescence ratio of 1.04.
AAGGGACGAG was tested, and the switch fluorescence ratio was 1.07.
In the case of AAGGGACTGA, the switch fluorescence ratio is reported as 1.04.
With AAGGGATTA the switch fluorescence ratio was 1.
With AAGGGCCTAC the switch fluorescence ratio was 1.48.
Sequence AAGGGCGCGG has a switch fluorescence ratio of 1.
In the case of AAGGGGAAAC, the switch fluorescence ratio is reported as 1.07.
With AAGGGGCTCC the switch fluorescence ratio was 0.957.
With AAGGGGTTG the switch fluorescence ratio was 1.
For AAGGGTAGG, the switch fluorescence ratio was 0.996.
AAGGGTGAAC gave a switch fluorescence ratio of 1.05.
Sequence AAGGGTTCCA has a switch fluorescence ratio of 1.02.
For AAGGTAAGTC, the switch fluorescence ratio was 1.03.
In the case of AAGGTAATCA, the switch fluorescence ratio is reported as 0.96.
With AAGGTACGAC the switch fluorescence ratio was 1.02.
With AAGGTACGGG the switch fluorescence ratio was 1.
AAGGTCCCAA was tested, and the switch fluorescence ratio was 0.998.
Work on AAGGTCGGGG yielded a switch fluorescence ratio of 1.07.
In the case of AAGGTCGTGG, the switch fluorescence ratio is reported as 1.02.
With AAGGTTAGGA the switch fluorescence ratio was 1.03.
In the case of AAGTAAAGGG, the switch fluorescence ratio is reported as 1.02.
AAGTAACTAT showed a switch fluorescence ratio of 1.
Sequence AAGTAATGTA has a switch fluorescence ratio of 1.04.
With AAGTACCGA the switch fluorescence ratio was 1.29.
Sequence AAGTACCGGC has a switch fluorescence ratio of 1.03.
For AAGTACCTTA, the switch fluorescence ratio was 1.19.
AAGTACGATT was tested, and the switch fluorescence ratio was 1.25.
With AAGTACTACC the switch fluorescence ratio was 1.27.
In the case of AAGTAGAAGG, the switch fluorescence ratio is reported as 0.985.
AAGTAGACTC showed a switch fluorescence ratio of 1.35.
AAGTAGCCCG was tested, and the switch fluorescence ratio was 1.01.
With AAGTAGGCT the switch fluorescence ratio was 0.966.
In the case of AAGTAGGGCT, the switch fluorescence ratio is reported as 0.945.
Work on AAGTAGTGAA yielded a switch fluorescence ratio of 0.998.
For AAGTATATT, the switch fluorescence ratio was 0.993.
AAGTATGACA showed a switch fluorescence ratio of 0.981.
In the case of AAGTATGCGG, the switch fluorescence ratio is reported as 0.945.
Work on AAGTATTCGG yielded a switch fluorescence ratio of 1.01.
For AAGTCAAGAA, the switch fluorescence ratio was 1.04.
AAGTCACA was tested, and the switch fluorescence ratio was 1.06.
AAGTCACGGG was tested, and the switch fluorescence ratio was 1.01.
For AAGTCAGGTA, the switch fluorescence ratio was 1.
AAGTCGAAAT gave a switch fluorescence ratio of 1.
Work on AAGTCTAAGA yielded a switch fluorescence ratio of 1.
For AAGTCTAGCT, the switch fluorescence ratio was 1.01.
Work on AAGTCTGTTG yielded a switch fluorescence ratio of 0.991.
Work on AAGTGATTAT yielded a switch fluorescence ratio of 0.976.
AAGTGCACTT showed a switch fluorescence ratio of 0.975.
In the case of AAGTGCCAGT, the switch fluorescence ratio is reported as 0.974.
Sequence AAGTGCGGGT has a switch fluorescence ratio of 1.02.
Work on AAGTGGACGG yielded a switch fluorescence ratio of 0.996.
In the case of AAGTGGCGA, the switch fluorescence ratio is reported as 1.05.
AAGTGGCTCG was tested, and the switch fluorescence ratio was 0.998.
AAGTGGTGCG showed a switch fluorescence ratio of 0.972.
AAGTGGTT showed a switch fluorescence ratio of 1.
AAGTGTATCT was tested, and the switch fluorescence ratio was 1.03.
With AAGTTAACCT the switch fluorescence ratio was 1.38.
AAGTTAAGAG gave a switch fluorescence ratio of 1.02.
In the case of AAGTTACTTA, the switch fluorescence ratio is reported as 1.08.
Sequence AAGTTACTTT has a switch fluorescence ratio of 1.02.
For AAGTTCATAG, the switch fluorescence ratio was 0.989.
For AAGTTCATTA, the switch fluorescence ratio was 1.
AAGTTCTTGA gave a switch fluorescence ratio of 1.
AAGTTGAAAC gave a switch fluorescence ratio of 1.01.

— the supplement of paper PMC10126150
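Further: ATP exposure 15 min at 22 °C before imaging.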
